Measurements from the supplement of paper PMC3334620.
The full ranking holds about 33,000 sequences; the median of “E-score (-0.5 to 0.5)” is about -0.013, and the highest 2% start at about 0.3. This is one part of the list.

Target: T1, Msn1 (UniProt P22148)
T1 sequence: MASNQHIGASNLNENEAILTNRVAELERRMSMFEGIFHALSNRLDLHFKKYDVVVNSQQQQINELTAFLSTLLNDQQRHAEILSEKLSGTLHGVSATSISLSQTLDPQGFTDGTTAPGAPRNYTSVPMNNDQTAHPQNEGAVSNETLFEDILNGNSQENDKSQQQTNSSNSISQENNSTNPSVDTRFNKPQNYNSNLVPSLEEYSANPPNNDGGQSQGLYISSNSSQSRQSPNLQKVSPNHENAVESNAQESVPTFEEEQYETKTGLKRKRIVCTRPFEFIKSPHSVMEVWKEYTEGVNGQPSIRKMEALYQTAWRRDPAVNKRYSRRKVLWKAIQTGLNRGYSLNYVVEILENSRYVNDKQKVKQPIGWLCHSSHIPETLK
Assay: PBM E-score (8-mer binding enrichment) (E-score (-0.5 to 0.5)); higher = stronger / more preferred TF binding; most listed sequences are background and not binding sites
Settings: protein concentration: 200 nM; construct: GST-full length
In short: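 GST-tagged yeast TFs (full-length or DNA-binding domain) were made by PURExpress in vitro transcription/translation and applied at about 100-200 nM to universal all-10-mer Agilent arrays. The arrays were made double-stranded by primer extension, on fresh or once-stripped slides. Bound protein was detected with fluorescent anti-GST, and scans were normalised with masliner. Each ungapped eight-base word, pooled with its reverse complement, received an E-score (modified Wilcoxon-Mann-Whitney statistic) from the Universal PBM Analysis Suite.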

Sequence	PBM E-score
ACTACCGA	-0.142
ATTCCGCG	0.104
GTATCGGA	0.055
ACACGAAT	0.167
CAGCTCGG	-0.0812
GTAGAATA	0.0609
GGACGCAC	0.0505
CTAGCAAC	0.0611
ACGTGACG	0.0441
TCCACGCA	-0.0945
ATCACAAT	-0.035
CACGGAAA	0.151
TAGATGGA	-0.11
GAGTCCGC	-0.271
CCACAGCC	-0.0205
CCCAGTCC	-0.156
CCCACTGA	-0.0422
ACGGACAT	0.473
AGCAGACA	0.0142
CACAAAGG	-0.115
GGGTGTAA	-0.0483
AATTCAAA	0.128
ACCAAGGG	-0.0635
ATAGTCAA	0.0132
AGGGTGCC	-0.261

Sequence	PBM E-score
GGTCGCGA	0.125
CTCCAGAG	-0.216
GTGACATA	0.328
AGGACTGG	-0.0567
CCTCCTAG	-0.0539
ACCTCCTC	-0.203
CTTGTGTA	0.114
CCGAAAGA	0.094
CGCATCGC	-0.189
CCCTTCTC	-0.359
GAATCTCC	-0.102
CACCGGTG	0.064
CGACGGAG	0.0293
ATTGATGG	0.177
CCGTTCAC	-0.0653
GAAGGTCA	-0.119
CCTACGAA	-0.0639
ATCGTCGC	0.0649
CAGCGCGG	-0.135
ATCCTCCG	-0.00807
GACAATAA	0.294
CTAGTAAC	-0.145
CGACACTC	0.136
CCTACTCC	-0.174
GACCCGCA	-0.114

Sequence	PBM E-score
GCGCTCCA	-0.199
ACGTACTA	0.0226
CGATTCTC	0.103
GAGGGGAA	-0.167
AGACCCCT	-0.238
ATCAATGA	0.118
GGCCCACC	-0.347
GGACTTGA	-0.00222
CGGACGAA	0.337
ACGGGCCC	-0.132
ATTAAACC	0.0943
ATTCTTGG	0.135
GCGTATAA	-0.029
GTAGACAA	0.309
CATATTCG	0.116
AGTTTGTC	0.446
TGAACCAA	0.0807
AAATCAAA	0.171
ATCGCTAC	-0.0607
ACGGTATG	-0.0824
AGTTACCG	-0.00336
ATCTATAG	0.0639
ACATCAAG	0.051
CTGATCCA	0.015
CGCGCTCC	-0.0391

Sequence	PBM E-score
GAGTGCTA	-0.139
AACTCCGG	0.23
GCGGGTCC	-0.19
GCTATTCC	-0.183
CGTCCTTA	0.279
AAAGAGCG	0.0369
AACAAGCC	0.0265
GCCCCACA	-0.0903
ACATCTGG	0.136
GAAGGAGC	-0.417
GAATTGAC	-0.0196
CCAGGGCG	-0.139
ATGCCTTG	-0.0693
CTCCACGA	-0.0161
AATATAGG	0.167
CGTGGGAC	0.186
CTGGCTCA	0.0792
TCGAACAA	0.111
AAGTCCCA	0.303
AATATTCA	0.107
CAACAGTA	-0.0242
CTGAGTGA	0.103
AGTAGATC	-0.0769
CACTGCTG	-0.229
CATTTGAG	0.214

Sequence	PBM E-score
ATTCCCCG	-0.012
AATTTCAT	0.186
CGGGACCA	-0.152
GGGGCTCA	-0.343
AAAAAGCG	0.0919
ACCGACAA	0.268
GCTGTCGA	-0.143
CCCTATCC	-0.354
CACTTACA	0.156
AAAGAAAT	0.0721
GTGTACTA	0.289
GTCGGAAA	0.213
GTAAGGTA	0.107
ATTCTACG	-0.0164
GCGCCGCC	0.0408
AAGACCTA	0.018
ACAGCGCC	-0.0779
CTCGGGTA	0.00177
ACAGGTCA	-0.0415
AATACGGG	-0.0838
CGCCCGTC	-0.0404
ATGAGCCG	-0.156
GAGTTCCC	0.0462
AGAGTATA	-0.24
ACCTTCTG	-0.0438

Sequence	PBM E-score
CAAGCTTG	-0.169
ATGCCCTG	-0.0109
CAGTTCTC	-0.083
GATGCGTA	0.00061
AGAGGAAT	-0.14
CTATCTCA	-0.0312
AGACTTTC	0.224
AAACCCCC	-0.295
ACATAATC	0.142
AATCTTAT	0.11
AACATGTA	0.186
TCTACAAA	0.0205
ACTTGAGA	-0.0406
AATGTAGT	-0.0349
AGGTGGCG	-0.256
ACCTTGGG	0.0466
TGTGTGAA	0.00834
ATCAATTA	0.127
AGCAATAC	0.0841
ACTTTCCG	0.0989
CAGTTCGG	0.115
ATGTGTCG	0.194
CACCTCTC	-0.244
CTAAGATA	0.0435
CGTGAGCC	-0.189

Sequence	PBM E-score
GAGCCGGC	-0.123
TCATGAAA	-0.0518
AGTTTATG	0.0578
CATTGGTC	-0.0452
CACAAATC	0.0687
GGGGTGGA	-0.263
AACGAAAG	0.0418
AAAGTTCC	-0.0603
GTTTTCGA	-0.179
ATTAAGAA	0.106
GGGTACCA	-0.0811
ATCGCCTA	-0.022
ACAGAGTA	0.0217
ATCCAGAA	0.0976
GAGAAATA	0.161
AATAAGGC	-0.0798
ATTCTCCC	-0.0691
GGACCTCC	-0.186
CAGTCTGA	-0.13
GCATTAGC	-0.0978
CGGTCGAA	0.0627
CTTTGAAC	-0.0499
AAGTCAAG	-0.118
ATGTTCTG	0.018
CCATTCCG	0.0235

Sequence	PBM E-score
TCAAACAA	0.0792
AGCGCAAC	0.00252
CACTTCAC	0.00039
CGGATTGC	0.0283
AAGTAGGT	-0.0559
GTGTAAAA	0.0823
ATGCGGGA	0.0935
CTCCTATC	-0.229
ATTTTAAA	0.156
GGTCTATA	-0.138
GTTGGGCA	-0.0271
CTTGCCAC	-0.171
AGTGCTTA	-0.0914
AGTGGGCC	-0.258
GGTATTGA	0.154
AATACACT	0.225
GCCTTTAC	-0.0137
AAATCGTT	0.167
CCAGGCAG	-0.0643
CCCTGCCA	-0.173
ACAAATAG	0.322
CCCGTTTA	0.193
CACCCCAA	-0.0518
GACTATAC	0.0248
ACGTTTTA	0.177

Sequence	PBM E-score
TACCTTAA	-0.0222
CAGTCAGA	-0.00092
CCGTATAA	0.144
CCGGGGGC	-0.388
ACAGAGCT	-0.0882
CCGAGGAA	0.0278
ACGTGTCT	0.16
CATGTAAG	0.109
CTAAGGCC	-0.0255
AATCCACT	0.0791
GCCTCGCA	-0.101
CACAAGTA	-0.0518
AGAAGCAA	0.0568
AACCGCTC	-0.0909
AGAGATCG	-0.0703
AGGATTGG	-0.0223
CCCAACCG	-0.165
ACAATACG	0.0932
ACACACTG	-0.00688
